Key:
[1] = test system: KMS-12BM multiple myeloma tumors; experiment: Efficacy against subcutaneous KMS-12BM multiple myeloma tumors in stem cell humanized NSG mice; format: in vivo; conditions: FIGS. 1A, 1B
Procedure: FIG. 1A, 1B: Results of an efficacy experiment evaluating GPRC5D-TCB as single agent and in combination with Bortezmib with or without Dexamethasone against KMS-12BM multiple myeloma tumors subcutaneously engrafted into stem cell humanized NSG. (FIG. 1A) GPRC5D-TCB was injected intravenously at 1 mg/kg once weekly and combined with twice weekly intravenous administration of Bortezomib at 0.25 mg/kg with or without oral Dexamethasone at 2 mg/kg and KMS-12BM tumor growth was monitored. (FIG. 1B) KMS-12BM tumor load of individual mice was evaluated at day 35 (end of study). Statistical analysis, ordinary one way ANOVA, Tukey test: p=<0.0001 (****); p=0.0001 to 0.001 (***); p=0.001 to 0.01 (**); p=0.01 to 0.05 (*); p=>0.05 (ns).
(§1) All in vivo efficacy and PD experiments were performed in humanized NSG mice carrying subcutaneous multiple myeloma xenograft tumors. […] Tumors growth was monitored twice weekly using Caliper measurements. In order to quantify tumor infiltrating lymphocytes, in some experiments tumors of scout animals were harvested and single cell suspensions were subjected to flow cytometry using FACSFortessa device and FlowJo software. Cytokine in serum of treated mice were analysed using the Bio-Plex Multiplex Immunoassay System from BioRad in combination with the Bio-Plex Pro Human Cytokine 27-plex Assay. […]

[2] = test system: NCI-H929 multiple myeloma tumors; experiment: Efficacy against subcutaneous NCI-H929 multiple myeloma tumors in stem cell humanized NSG mice; format: in vivo; conditions: GPRC5D-TCB 0.1 mg/kg i.v. once weekly combined with Carfilzomib 3 mg/kg i.v. twice weekly, compared to GPRC5D-TCB monotherapy; FIG. 2A
Procedure: (§2) FIG. 2A, 2B, 2C. 2D: Results of an efficacy experiment evaluating GPRC5D-TCB as single agent and in combination with Carfilzomib against NCI-H929 multiple myeloma tumors subcutaneously engrafted into stem cell humanized NSG. (FIG. 2A) GPRC5D-TCB was injected intravenously at 0.1 mg/kg once weekly and combined with twice weekly intravenous administration of Carfilzomibat 3 mg/kg and NCI-H929 tumor growth was monitored. IFN-γ (FIG. 2B), IL-2 (FIG. 2C) and TNF-α (FIG. 2D) levels in serum of mice were determined 48 hours after first GPRC5D-TCB and 24 h after Carfilzomib injection using multiplex technology. Statistical analysis, ordinary one way ANOVA, Tukey test: p=<0.0001 (****); p=0.0001 to 0.001 (***); p=0.001 to 0.01 (**); p=0.01 to 0.05 (*): p=>0.05 (ns).
as §1

[3] = test system: IFN-γ, IL-2 and TNF-α levels in serum; experiment: Serum cytokine levels (IFN-γ, IL-2, TNF-α) by multiplex in NCI-H929 tumor bearing humanized mice; format: in vivo, humanized NSG mice; conditions: combination with Carfilzomib; 48 hours after first GPRC5D-TCB and 24 h after Carfilzomib injection; FIGS. 2B, 2C, 2D
Procedure: as §2, §1

B1: GPRC5D-TCB: anti-GPRC5D/anti-CD3 bispecific antibody, SEQ ID NO: 26, 27, 28 and 29 as disclosed in WO 2021/018859 A1 (protein)
chain 1: EIVLTQSPGTLSLSPGERATLSCRASQSVSISGINLMNWYQQKPGQQPKLLIYHASILASGIPDRFSGSGSGTDFTLTISRLEPEDFAVYYCQQTRESPLTFGQGTRLEIKRTVAAPSVFIFPPSDRKLKSGTASVVCLLNNFYPREAKVQWKVDNALQSGNSQESVTEQDSKDSTYSLSSTLTLSKADYEKHKVYACEVTHQGLSSPVTKSFNRGEC
chain 2: EVQLLESGGGLVQPGGSLRLSCAASGFQFSSYAMNWVRQAPGKGLEWVSRIRSKYNNYATYYADSVKGRFTISRDDSKNTLYLQMNSLRAEDTAVYYCVRHTTFPSSYVSYYGYWGQGTLVTVSSASVAAPSVFIFPPSDEQLKSGTASVVCLLNNFYPREAKVQWKVDNALQSGNSQESVTEQDSKDSTYSLSSTLTLSKADYEKHKVYACEVTHQGLSSPVTKSFNRGEC
chain 3: EVQLLESGGGLVQPGGSLRLSCAASGFTFSKYAMAWVRQAPGKGLEWVASISTGGVNTYYADSVKGRFTISRDNSKNTLYLQMNSLRAEDTAVYYCATHTGDYFDYWGQGTMVTVSSASTKGPSVFPLAPSSKSTSGGTAALGCLVEDYFPEPVTVSWNSGALTSGVHTFPAVLQSSGLYSLSSVVTVPSSSLGTQTYICNVNHKPSNTKVDEKVEPKSCDKTHTCPPCPAPEAAGGPSVFLFPPKPKDTLMISRTPEVTCVVVDVSHEDPEVKFNWYVDGVEVHNAKTKPREEQYNSTYRVVSVLTVLHQDWLNGKEYKCKVSNKALGAPIEKTISKAKGQPREPQVCTLPPSRDELTKNQVSLSCAVKGFYPSDIAVEWESNGQPENNYKTTPPVLDSDGSFFLVSKLTVDKSRWQQGNVFSCSVMHEALHNHYTQKSLSLSPGK
chain 4: EVQLLESGGGLVQPGGSLRLSCAASGFTFSKYAMAWVRQAPGKGLEWVASISTGGVNTYYADSVKGRFTISRDNSKNTLYLQMNSLRAEDTAVYYCATHTGDYFDYWGQGTMVTVSSASTKGPSVFPLAPSSKSTSGGTAALGCLVEDYFPEPVTVSWNSGALTSGVHTFPAVLQSSGLYSLSSVVTVPSSSLGTQTYICNVNHKPSNTKVDEKVEPKSCDGGGGSGGGGSQAVVTQEPSLTVSPGGTVTLTCGSSTGAVTTSNYANWVQEKPGQAFRGLIGGTNKRAPGTPARFSGSLLGGKAALTLSGAQPEDEAEYYCALWYSNLWVFGGGTKLTVLSSASTKGPSVFPLAPSSKSTSGGTAALGCLVKDYFPEPVTVSWNSGALTSGVHTFPAVLQSSGLYSLSSVVTVPSSSLGTQTYICNVNHKPSNTKVDKKV[human IgG1 Fc with changes cut from this listing]
efficacy against KM12-BM tumors (tumor growth, tumor load at day 35) ([1]; GPRC5D-TCB 1 mg/kg i.v. once weekly in combination with Bortezomib 0.25 mg/kg i.v. twice weekly): not compromised | efficacy against KM12-BM tumors (tumor growth, tumor load at day 35) ([1]; GPRC5D-TCB 1 mg/kg i.v. once weekly in triple combination with Bortezomib 0.25 mg/kg i.v. twice weekly and oral Dexamethasone 2 mg/kg): boosted | onset of tumor growth inhibition [2]: faster onset of tumor growth inhibition | tumor relapse [2]: delayed tumor relapse | cytokine release (IFN-γ, IL-2, TNF-α in serum) [3]: slight decrease in cytokine release
